Assay results published in publication PMC6919601, “Identification of Plasmodium dipeptidyl aminopeptidase allosteric inhibitors by high throughput screening” (PLoS ONE, 2019).
About 230 (0.21%) of roughly 110,000 compounds showed an effect of 50% or more. The list shows a part of the results.

target: DPAP1 (Plasmodium falciparum, UniProt Q8IIJ9); experiment: primary screen, percent inhibition; read by cleavage of a fluorogenic dipeptide substrate; higher = more effect of the substance; design: species or system P. falciparum D10 trophozoite lysates; single well
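Further: 30 min substrate incubation versus DMSO and 10 µM JCP410 controls.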

Sequence of DPAP1 (Q8IIJ9 whole entry, looked up): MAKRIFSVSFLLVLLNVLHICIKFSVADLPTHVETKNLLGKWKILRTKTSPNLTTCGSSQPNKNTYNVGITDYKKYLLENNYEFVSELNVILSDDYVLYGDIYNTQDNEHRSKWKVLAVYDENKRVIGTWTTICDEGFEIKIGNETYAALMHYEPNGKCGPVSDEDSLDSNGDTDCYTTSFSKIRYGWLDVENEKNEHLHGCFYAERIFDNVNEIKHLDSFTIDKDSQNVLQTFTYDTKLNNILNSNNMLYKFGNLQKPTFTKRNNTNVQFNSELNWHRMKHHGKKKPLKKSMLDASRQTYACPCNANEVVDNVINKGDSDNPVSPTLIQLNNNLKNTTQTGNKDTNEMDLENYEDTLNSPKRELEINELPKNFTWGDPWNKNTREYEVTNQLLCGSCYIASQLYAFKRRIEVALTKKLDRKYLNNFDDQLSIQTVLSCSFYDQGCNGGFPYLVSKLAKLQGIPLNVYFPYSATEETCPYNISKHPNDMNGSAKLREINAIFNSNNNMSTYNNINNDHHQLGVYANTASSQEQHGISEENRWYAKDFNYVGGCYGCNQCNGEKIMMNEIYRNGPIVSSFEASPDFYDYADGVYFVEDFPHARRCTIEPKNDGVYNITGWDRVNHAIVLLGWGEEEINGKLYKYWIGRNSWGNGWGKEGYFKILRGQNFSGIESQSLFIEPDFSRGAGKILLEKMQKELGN

Row | SMILES | % Inhibition @ 10 uM [%]
1 | C=CCn1c(SCC(=O)N2CCc3ccccc3C2)nc2sc(C)cc2c1=O | -0.994
2 | CCOC(=O)N1CCC(NCC2CCCCC2)CC1 | -5.11
3 | Cn1cc(CNC(=O)c2cc(-c3ccccc3)nc3ccccc23)cn1 | 6.18
4 | COc1ccc(OCC(=O)N2CCN(C(=O)COc3ccc(OC)cc3)CC2)cc1 | 6.69
5 | CCc1ccc(S(=O)(=O)N2CCSC2c2cc(OC)ccc2OC)cc1 (centres unmarked) | -1.6
6 | CCOC(=O)N1CCc2c(sc3c2C(=O)NC(c2ccc(-c4ccc(Cl)cc4)o2)N3)C1 (centres unmarked) | 4.08
7 | COc1cccc(NC(=O)COc2ccc(Cl)cc2Cl)c1 | -3.24
8 | COc1ccc(-c2c(C)nn3c(O)cc(-c4ccccc4)nc23)cc1 | 4.52
9 | CCO/C(O)=C(/C(=N)C(F)(F)F)C(C)=O | -1.82
10 | CCC1CCCCN1CCCNC(=O)Cn1ncn2nc(-c3cccs3)cc2c1=O (centres unmarked) | -1.08
11 | Cc1sc(NC(=O)C2CC3CCC2C3)nc1-c1ccccc1 (centres unmarked) | 2.42
12 | Cc1ccc(C(=O)n2cnnc2N)cc1Cl | 0.275
13 | Cc1cc(C)c(Cn2c3ccccc3c3cnn(CC(=O)NCc4cccnc4)c(=O)c32)c(C)c1 | -3.58
14 | CNC(=O)C(=O)Nc1cccc(Cl)c1 | -4.01
15 | COc1ccc(CCCC(=O)Nc2cccc(SC)c2)cc1 | -4.76
16 | CCOc1ccc(C2C3=C(O)CC(C)(C)CC3=NC3=C2C(=O)CC(C)(C)C3)cc1Cl (centres unmarked) | -1.6
17 | CC12OC(=O)C(Cl)(Cl)C1c1ccccc1C2=O (centres unmarked) | 0.413
18 | O=C(O)c1ccc(CNC(=O)c2ccc3c(c2)C(=O)N(Cc2ccco2)C3=O)cc1 | 2.13
19 | COC(=O)C1=C(C)NC(=O)CC1c1cc(Br)ccc1OC (centres unmarked) | 1.84
20 | CCN(CC)CCCCCOc1cc(C)c(Cl)c(C)c1 | 0.132
21 | Cc1c(C(=O)NCc2ccc3c(c2)OCO3)oc2c1-c1n[nH]cc1CC2 | 3.87
22 | CN1CCN(c2ncnc3c2cnn3C)CC1 | 5.84
23 | CC1(C)CC(=O)C2=C(C1)c1c(ccc3ccccc13)NC2c1ccccc1OCC(N)=O (centres unmarked) | -4.03
24 | CCN(Cc1ccncc1)C(=O)c1cccs1 | -4.3
25 | Cc1cc(C)n(-c2cc(-c3ccccc3)nc(-c3ccc(Br)cc3)n2)n1 | 5.03

Row | SMILES | % Inhibition @ 10 uM [%]
26 | COc1ccc(-c2nc3cc(C)ccn3c2NC(=O)c2ccc(OC)cc2OC)cc1 | 2.17
27 | Cc1ccc(NC(=O)c2cc3ccccc3oc2=O)c(Br)c1 | 3.03
28 | CCCc1c(C)nc2ccc(OC)cc2c1S | 0.132
29 | COC(=O)c1ccccc1NC(=O)CCN1C(=O)c2ccccc2C1=O | -5.51
30 | CCN1CCC(N2CCCC(CO)C2)CC1 (centres unmarked) | 1.83
31 | CO/C(O)=C1\C(C)=NC2=C(C(=O)CC(C)(C)C2)C1c1ccc(O)c([N+](=O)[O-])c1 (centres unmarked) | 1.38
32 | COc1ccc(CNC2CCC(c3ccccc3)CC2)cc1OC (centres unmarked) | 2.99
33 | c1cncc(-c2nc3ccccc3s2)c1 | -0.294
34 | Clc1cc2c(c3ncccc13)OCN(CCC1=CCCCC1)C2 | -3.21
35 | COc1cc2c(N3CCOCC3)cc(O)c(CC(=O)Nc3ccccc3)c2cc1OC | -0.0372
36 | CC(C)Oc1ccc(C(=O)Nc2ccc(Br)cc2)cc1 | -6.05
37 | COc1ccc(OC)c(C2C(=O)N(C3CCC(C)CC3)CC(=O)N2CCc2ccccc2Cl)c1 (centres unmarked) | -4.06
38 | c1ccc2c(c1)nc(NCc1ccc3c(c1)OCO3)c1nnnn12 | -6.58
39 | O=C(O)C1Cc2c([nH]c3ccccc23)C(c2ccccc2F)N1 (centres unmarked) | -0.999
40 | Cc1ccc(C)c(Cn2c(C)c(CNCCCN3CCCC3=O)c(C(=O)O)c2C)c1 | -5.49
41 | O=C(CCc1nnc2n(Cc3ccccc3)c(=O)c3ccccc3n12)NCc1ccccc1Cl | -4.21
42 | Cc1ccc(C)n1-c1nnc(N2CCC(C(=O)NCCc3cccs3)CC2)s1 | 1.15
43 | Cc1nc2c(C(=O)NC3CCCC(C)C3C)cnn2c(C)c1Cc1ccccc1Cl (centres unmarked) | 1.27
44 | Cc1nc2ncnn2c(C)c1CCC(=O)NCCc1ccccc1 | -8.02
45 | O=C(Cc1c(C(=O)O)[nH]c2ccc(Cl)cc12)NCc1ccc2c(c1)OCO2 | 1.86
46 | COc1ccccc1/C=C1\SC(=O)N(Cc2ccc(F)cc2)C1=O | 3.17
47 | O=C(O)/C(=C/c1c[nH]c2ccccc12)NC(=O)c1ccccc1 | 0.147
48 | O=S(=O)(c1cccc(Cl)c1)c1nnn2c1nc(NC1CCCCC1)c1sccc12 | -5.57
49 | COc1cccc(CS(=O)(=O)C2C(C)CC(C)(C)CC2O)c1 (centres unmarked) | -1.98
50 | O=C(COc1ccc(Cl)cc1Cl)Nc1ccc(Cl)c(Cl)c1 | -0.253
